Experiment in all cases: co-IP; 293T cells transiently cotransfected with a Flag-tagged and a 6Myc-tagged protein; cell extracts two days after transfection; immunoprecipitation with anti-Flag antibodies, anti-Myc Western blot
For orientation: A western blot detects proteins with antibodies after separation by electrophoresis.

Assay [1] deals with T1, Flag-tagged JMJD2A amino acids 2-350 (UniProt O75164).
T1 sequence: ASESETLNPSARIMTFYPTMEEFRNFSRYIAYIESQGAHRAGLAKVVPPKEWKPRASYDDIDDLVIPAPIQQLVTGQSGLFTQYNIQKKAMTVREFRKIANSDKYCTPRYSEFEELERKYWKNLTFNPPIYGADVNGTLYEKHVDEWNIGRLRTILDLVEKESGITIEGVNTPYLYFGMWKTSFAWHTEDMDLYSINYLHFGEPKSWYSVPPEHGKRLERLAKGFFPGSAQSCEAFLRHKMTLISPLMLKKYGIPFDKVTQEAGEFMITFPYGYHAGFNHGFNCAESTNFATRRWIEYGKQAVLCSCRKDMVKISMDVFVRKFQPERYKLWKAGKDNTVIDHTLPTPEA

The target of assay [2] is T2, Flag-tagged JMJD2A amino acids 2-703 (UniProt O75164).
T2 sequence: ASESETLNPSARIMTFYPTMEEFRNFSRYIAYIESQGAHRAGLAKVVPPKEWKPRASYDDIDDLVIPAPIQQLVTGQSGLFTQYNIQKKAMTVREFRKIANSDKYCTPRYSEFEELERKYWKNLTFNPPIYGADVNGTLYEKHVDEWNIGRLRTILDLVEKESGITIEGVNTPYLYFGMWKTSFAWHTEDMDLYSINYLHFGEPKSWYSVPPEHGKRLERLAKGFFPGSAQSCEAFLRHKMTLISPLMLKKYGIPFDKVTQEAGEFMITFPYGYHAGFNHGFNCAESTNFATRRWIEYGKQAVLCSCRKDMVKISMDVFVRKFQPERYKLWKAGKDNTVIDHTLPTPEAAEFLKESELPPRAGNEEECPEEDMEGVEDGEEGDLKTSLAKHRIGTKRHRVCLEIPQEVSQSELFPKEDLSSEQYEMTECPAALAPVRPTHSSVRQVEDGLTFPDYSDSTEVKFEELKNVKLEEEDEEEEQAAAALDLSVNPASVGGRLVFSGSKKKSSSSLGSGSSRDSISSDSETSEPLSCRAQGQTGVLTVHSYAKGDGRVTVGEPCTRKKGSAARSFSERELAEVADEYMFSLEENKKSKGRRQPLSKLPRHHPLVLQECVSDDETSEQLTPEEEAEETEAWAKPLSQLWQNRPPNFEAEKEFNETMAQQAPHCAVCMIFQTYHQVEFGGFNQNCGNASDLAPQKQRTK

Assay [3] addresses T3, Flag-tagged JMJD2A amino acids 301-1064 (UniProt O75164).
T3 sequence: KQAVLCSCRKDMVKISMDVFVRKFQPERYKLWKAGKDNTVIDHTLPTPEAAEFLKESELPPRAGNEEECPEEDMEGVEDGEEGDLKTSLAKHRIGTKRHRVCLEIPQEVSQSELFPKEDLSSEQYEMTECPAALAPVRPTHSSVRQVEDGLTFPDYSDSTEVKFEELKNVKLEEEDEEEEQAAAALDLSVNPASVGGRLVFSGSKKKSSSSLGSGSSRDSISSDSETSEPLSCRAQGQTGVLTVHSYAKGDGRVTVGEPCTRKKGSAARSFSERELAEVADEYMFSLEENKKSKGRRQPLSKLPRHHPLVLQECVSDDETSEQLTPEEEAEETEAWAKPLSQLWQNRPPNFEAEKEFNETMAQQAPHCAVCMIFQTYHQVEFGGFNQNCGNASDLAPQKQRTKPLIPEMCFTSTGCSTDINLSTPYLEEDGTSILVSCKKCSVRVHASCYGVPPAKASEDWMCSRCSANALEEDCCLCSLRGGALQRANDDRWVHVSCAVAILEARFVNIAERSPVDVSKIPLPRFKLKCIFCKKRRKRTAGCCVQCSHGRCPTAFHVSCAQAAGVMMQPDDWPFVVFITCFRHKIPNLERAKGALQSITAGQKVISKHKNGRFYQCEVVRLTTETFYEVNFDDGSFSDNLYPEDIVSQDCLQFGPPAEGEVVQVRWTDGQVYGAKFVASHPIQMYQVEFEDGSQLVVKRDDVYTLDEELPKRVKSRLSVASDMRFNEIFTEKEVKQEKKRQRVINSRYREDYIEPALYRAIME

Assay [4] deals with T4, Flag-tagged JMJD2A amino acids 61-1064 (UniProt O75164).
T4 sequence: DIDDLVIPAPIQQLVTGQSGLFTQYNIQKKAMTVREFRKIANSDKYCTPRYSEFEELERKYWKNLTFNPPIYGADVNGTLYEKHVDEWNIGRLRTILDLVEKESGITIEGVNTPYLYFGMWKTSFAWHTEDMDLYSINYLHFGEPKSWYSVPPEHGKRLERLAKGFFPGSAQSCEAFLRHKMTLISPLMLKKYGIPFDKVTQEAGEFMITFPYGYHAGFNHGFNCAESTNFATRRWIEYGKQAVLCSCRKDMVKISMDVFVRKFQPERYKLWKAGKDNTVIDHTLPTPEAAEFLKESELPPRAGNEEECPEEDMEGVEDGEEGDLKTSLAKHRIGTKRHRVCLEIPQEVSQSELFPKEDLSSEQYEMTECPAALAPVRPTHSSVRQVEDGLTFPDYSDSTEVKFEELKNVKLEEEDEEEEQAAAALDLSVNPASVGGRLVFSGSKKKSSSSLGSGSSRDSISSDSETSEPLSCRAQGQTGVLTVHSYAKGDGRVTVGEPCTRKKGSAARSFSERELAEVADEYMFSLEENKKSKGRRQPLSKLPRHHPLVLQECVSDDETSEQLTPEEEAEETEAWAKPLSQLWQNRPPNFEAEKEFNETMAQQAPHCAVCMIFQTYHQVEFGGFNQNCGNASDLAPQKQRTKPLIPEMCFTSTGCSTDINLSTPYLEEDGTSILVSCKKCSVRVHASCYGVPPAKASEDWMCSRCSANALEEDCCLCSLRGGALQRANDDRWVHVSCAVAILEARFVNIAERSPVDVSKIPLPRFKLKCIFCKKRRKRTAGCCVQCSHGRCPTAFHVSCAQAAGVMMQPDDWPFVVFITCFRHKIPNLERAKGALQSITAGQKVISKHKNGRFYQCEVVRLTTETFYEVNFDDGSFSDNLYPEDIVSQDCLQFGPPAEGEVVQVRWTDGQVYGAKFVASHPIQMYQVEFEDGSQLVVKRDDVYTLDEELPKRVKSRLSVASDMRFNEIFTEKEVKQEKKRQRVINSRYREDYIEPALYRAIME

These are yes or no findings as the source states them, for the method shown. In cells and extracts the contact can be indirect. Some results given as binding are weak or reduced against the parent protein; the word gives no strength. Sequences can lack the tags named with a protein.

B1: 6Myc-JMJD1A (protein, UniProt Q9Y4C1 1-1321)
chain: MVLTLGESWPVLVGRRFLSLSAADGSDGSHDSWDVERVAEWPWLSGTIRAVSHTDVTKKDLKVCVEFDGESWRKRRWIEVYSLLRRAFLVEHNLVLAERKSPEISERIVQWPAITYKPLLDKAGLGSITSVRFLGDQQRVFLSKDLLKPIQDVNSLRLSLTDNQIVSKEFQALIVKHLDESHLLKGDKNLVGSEVKIYSLDPSTQWFSATVINGNPASKTLQVNCEEIPALKIVDPSLIHVEVVHDNLVTCGNSARIGAVKRKSSENNGTLVSKQAKSCSEASPSMCPVQSVPTTVFKEILLGCTAATPPSKDPRQQSTPQAANSPPNLGAKIPQGCHKQSLPEEISSCLNTKSEALRTKPDVCKAGLLSKSSQIGTGDLKILTEPKGSCTQPKTNTDQENRLESVPQALTGLPKECLPTKASSKAELEIANPPELQKHLEHAPSPSDVSNAPEVKAGVNSDSPNNCSGKKVEPSALACRSQNLKESSVKVDNESCCSRSNNKIQNAPSRKSVLTDPAKLKKLQQSGEAFVQDDSCVNIVAQLPKCRECRLDSLRKDKEQQKDSPVFCRFFHFRRLQFNKHGVLRVEGFLTPNKYDNEAIGLWLPLTKNVVGIDLDTAKYILANIGDHFCQMVISEKEAMSTIEPHRQVAWKRAVKGVREMCDVCDTTIFNLHWVCPRCGFGVCVDCYRMKRKNCQQGAAYKTFSWLKCVKSQIHEPENLMPTQIIPGKALYDVGDIVHSVRAKWGIKANCPCSNRQFKLFSKPASKEDLKQTSLAGEKPTLGAVLQQNPSVLEPAAVGGEAASKPAGSMKPACPASTSPLNWLADLTSGNVNKENKEKQPTMPILKNEIKCLPPLPPLSKSSTVLHTFNSTILTPVSNNNSGFLRNLLNSSTGKTENGLKNTPKILDDIFASLVQNKTTSDLSKRPQGLTIKPSILGFDTPHYWLCDNRLLCLQDPNNKSNWNVFRECWKQGQPVMVSGVHHKLNSELWKPESFRKEFGEQEVDLVNCRTNEIITGATVGDFWDGFEDVPNRLKNEKEPMVLKLKDWPPGEDFRDMMPSRFDDLMANIPLPEYTRRDGKLNLASRLPNYFVRPDLGPKMYNAYGLITPEDRKYGTTNLHLDVSDAANVMVYVGIPKGQCEQEEEVLKTIQDGDSDELTIKRFIEGKEKPGALWHIYAAKDTEKIREFLKKVSEEQGQENPADHDPIHDQSWYLDRSLRKRLHQEYGVQGWAIVQFLGDVVFIPAGAPHQVHNLYSCIKVAEDFVSPEHVKHCFWLTQEFRYLSQTHTNHEDKLQVKNVIYHAVKDAVAMLKASESSFGKP
Take B1: the binding entry in assay [1] is given as “no binding”; in assay [2], “binds”; in assay [3] it was “no binding”; in assay [4] it was “binds”.

These data come from PMC9986587.
